The values that follow come from US20220089642A1 (CITY OF HOPE, published 2022).

The target of this assay is receptor binding domain (RBD) of the spike protein (SARS-CoV-2). The assay is described as follows: elution profiles and Western blot. (In general: In western blotting, separated proteins are transferred to a membrane and probed.)

B1: Fc-ACE2 full length construct (Fc fusion)
chain: not shown
notes: also called Fc-ACE2 construct; FC-ACE2 construct
For B1, the binding result is “binds”.
